In PMC11338008, “Development and validation of CYP26A1 inhibition assay for high-throughput screening” (Biotechnology journal, 2024):
Values joined by “and” are separate entries in the source; they are usually repeats but may differ in a detail not shown here. Equal entries are not always repeated. Structures can show the parent of a compound that is named as a salt. Where two headings read alike, the source gives them in different places.

Columns and labels:
[1] = biological target: T1, recombinant wild-type human CYP26A1 enzyme (Homo sapiens, UniProt O43174); conditions: for fold difference in IC50 between atRA and its isomer: relative to atRA
T1 sequence (O43174 1-497): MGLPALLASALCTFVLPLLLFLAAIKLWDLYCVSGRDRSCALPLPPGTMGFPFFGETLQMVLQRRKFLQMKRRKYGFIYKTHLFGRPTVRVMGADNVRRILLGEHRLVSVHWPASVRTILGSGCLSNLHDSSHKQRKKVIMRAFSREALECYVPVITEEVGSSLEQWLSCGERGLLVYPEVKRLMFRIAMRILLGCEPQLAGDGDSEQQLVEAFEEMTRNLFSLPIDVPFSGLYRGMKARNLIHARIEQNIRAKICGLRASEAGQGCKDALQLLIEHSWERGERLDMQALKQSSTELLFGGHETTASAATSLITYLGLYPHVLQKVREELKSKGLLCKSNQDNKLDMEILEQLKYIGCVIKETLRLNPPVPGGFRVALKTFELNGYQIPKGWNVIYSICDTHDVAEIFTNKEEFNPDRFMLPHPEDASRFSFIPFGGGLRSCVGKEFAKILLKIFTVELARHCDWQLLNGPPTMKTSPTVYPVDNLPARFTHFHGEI

[2] = biological target: T1, recombinant wild-type human CYP26A1 enzyme; experiment: biochemical; conditions: for Emax: read-out: Maximum response
[3] = IC50 (Figure 3D, atRA and its isomers), 0.1% BSA + 0.025% CHAPS
[4] = IC50, mean ± SD from three experiments, 2 μM luciferin-BE, active = maximum response greater than 40%

IC50 [2, 4]	Emax [2]	SMILES	also measured
		CC1=C(/C=C/C(C)=C\C=C\C(C)=C\C(=O)O)C(C)(C)CCC1 [9-cis-RA, 9-cis-retinoic acid]	fold difference in IC50 between atRA and its isomer [1]: 2 fold; IC50 [2, 3]: 2.8 µM
		CC1=C(/C=C/C(C)=C/C=C/C(C)=C\C(=O)O)C(C)(C)CCC1 [13-cis-RA, 13-cis-retinoic acid]	fold difference in IC50 between atRA and its isomer [1]: 6 fold; IC50 [2, 3]: 6.1 µM
4.13 ± 0.21 µM	-107%	CC1(C)CCC(C)(C)c2cc(C(=O)Nc3ccc(C(=O)O)cc3)ccc21 [AM580]	
0.1 µM	-101%	COc1ccc(-c2ccc3cc(C(=O)O)ccc3c2)cc1C12CC3CC(CC(C3)C1)C2 [Adapalene]	
5.3 ± 0.6 µM	-110%	C=C(c1ccc(C(=O)O)cc1)c1cc2c(cc1C)C(C)(C)CCC2(C)C [Bexarotene]	
0.12 ± 0.01 µM	-102%	O=C(O)c1ccc2cc(-c3ccc(O)c(C45CC6CC(CC(C6)C4)C5)c3)ccc2c1 [CD437]	
		Cn1c(=O)c2c(ncn2C)n(C)c1=O [Caffeine]	CYP26A1 inhibition, result in words [1]: no effect
		CCCCCCCCCC=O [Decanal]	CYP26A1 inhibition, result in words [1]: no effect; IC50 ([1]; mean ± SD from three experiments, 2 μM luciferin-BE, active = maximum response greater than 40%): Inactive
		CCOC(=O)/C=C(C)/C=C/C=C(C)/C=C/c1c(C)cc(OC)c(C)c1C [Etretinate]	IC50 [1]: Inactive
20.1 ± 2.85 µM	-100%	OC(Cn1cncn1)(Cn1cncn1)c1ccc(F)cc1F [Fluconazole]	
19.1 ± 2.35 µM	-85%	O=C(O)Cc1c[nH]c2ccccc12 [Indole-3-acetic acid]	
	-103%	Clc1cccc(C(c2ccc3[nH]cnc3c2)n2ccnc2)c1 (stereo not shown) [Liarozole dihydrochloride]	
		O=C(O)C(=O)O [Oxalic acid]	CYP26A1 inhibition, result in words [1]: no effect; IC50 [1]: Inactive
0.05 ± 0.004 µM	-102%	CCC(CC)C(c1ccc(Nc2nc3ccccc3s2)cc1)n1cncn1 (stereo not shown) [R115866/Talarozole, Talarozole]	times less potent in the luciferin-BE assay compared to atRA probe substrate assay ([1]; 50 vs. 5 nM): 10 times
6 ± 0.16 µM	-108%	CC1(C)CCC(C)(C)c2cc(C3(c4ccc(C(=O)O)cc4)OCCO3)ccc21 [SR11237]	
10.7 ± 1 µM	-109%	C/C(=C\c1ccc(C(=O)O)cc1)c1ccc2c(c1)C(C)(C)CCC2(C)C [TTNPB/Arotinoid acid, Arotinoid acid]	
4.5 ± 0.11 µM	-106%	CC1(C)CCC(C)(C)c2cc(NC(=O)c3ccc(C(=O)O)cc3)ccc21 [Tamibarotene/AM80, Tamibarotene]	
54.1 ± 6.1 µM	-71.1%	CCOC(=O)c1ccc(C#Cc2ccc3c(c2)C(C)(C)CCS3)nc1 [Tazarotene]	
2.4 µM and 2.37 µM	-103%	CC1(C)CCSc2ccc(C#Cc3ccc(C(=O)O)cn3)cc21 [Tazarotenic Acid]	
		CC1=C(/C=C/C(C)=C/C=C/C(C)=C/C(=O)O)C(C)(C)CCC1 [atRA, all-trans retinoic acid]	Hill slope of inhibition curve ([1]; best fit of atRA inhibition curve): −1; IC50 [2, 3]: 1.1 µM

SMILES	IC50 [2, 4]	Emax [2]	also measured
CC(C)N1C(=O)N(c2ccccc2)CS/C1=N\C(C)(C)C [Buprofezin]	78.7 ± 38.6 µM	-75.7%	
N#Cc1c(Cl)c(Cl)c(Cl)c(C#N)c1Cl [Chlorothalonil]		-55.3%	CYP26A1 inhibition, result in words [1]: novel CYP26A1 inhibitors
Cc1nn(C)c(Oc2ccccc2)c1C=NOCc1ccc(C(=O)OC(C)(C)C)cc1 [Fenpyroximate (Z,E)]	34.7 ± 1.62 µM		
C#CCOS(=O)OC1CCCCC1Oc1ccc(C(C)(C)C)cc1 (stereo not shown) [Propargite]	38.2 ± 14.2 µM		
O=C(c1ccc(OCCN2CCCCC2)cc1)c1c(-c2ccc(O)cc2)sc2cc(O)ccc12 [Raloxifene hydrochloride]		-102%	
CC(C)(C)C(=O)C(Oc1ccc(Cl)cc1)n1cncn1 (stereo not shown) [Triadimefon]	1.11 ± 0.05 µM	-102%	IC50 ([2]; IC50 (Figure 3A plot key), 0.1% BSA + 0.025% CHAPS): 0.7 µM; IC50 ([2]; IC50 (Figure 3B plot key), 0.1% BSA + 0.01% Triton X-100): 6 µM; IC50 ([2]; IC50 (Figure 3C plot key), 0.1% BSA + 0.01% Tween-20): 4.4 µM
CCCOC/C(=N\c1ccc(Cl)cc1C(F)(F)F)n1ccnc1 [Triflumizole]	9.53 ± 0.71 µM	-110%	
